Out of some 410,000 compounds screened, about 5,000 (1.2%) were called active. This list was built around the results that the source calls inconclusive (neither active nor inactive); the mix of calls is not that of the screen. Calls come from the whole dose curve; as a rule, active = well fitted inhibition curve with a large enough effect; inconclusive = small, poorly fitted or top-dose-only effect; inactive = no such curve, though single readings can be large or run the other way. Potencies of inconclusive entries are doubtful fits and often do not repeat.
Experiment: qHTS for Inhibitors of TGF-b; note: nearly all actives have a fitted effect of over 65% in size
Details: HepG2 CAGA-GFP TGF-b/SMAD3 reporter, GFP fluorescence, 18 h, TGF-beta stimulated, 500 pg/mL final; series mostly up to 46.1 µM
Outline: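 Read-out: total well GFP (ex488/em500-530) summed from mean per-cell fluorescence. Cells: HEPG2 CAGA-GFP, 1% FBS DMEM, 18 h at 37 degrees C with 500 pg/mL final TGF-beta. Unstimulated wells served as the full-inhibition control; stimulated DMSO wells = 0%.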
Potency is the fitted concentration of half-maximal effect; tags give direction and shape of the fitted curve.

Row | Compound | Potency
1 | COc1ccc(-c2ccc3c(c2)CN(C(=O)CCc2ccccc2)Cc2cnnn2-3)cc1 | inconclusive: 10 µM [inhibitor, partial curve]
2 | Cc1ccccc1-[n+]1c(-c2ccccc2)cc(-c2ccccc2)cc1-c1ccccc1 | inconclusive: 7.08 µM [inhibitor, partial curve]
3 | COc1ccc(CN2CCN(C(=O)Cc3ccccc3)CC2)cc1OC | inactive
4 | CN1CCC(O)(c2ccccc2)C(C(=O)c2ccccc2)C1 (configuration not stated) | inconclusive: 35.5 µM [inhibitor, single point]
5 | C[C@H](CO)N1C[C@H](C)[C@H](CN(C)S(=O)(=O)c2ccc(Cl)cc2)OCc2ccccc2-c2c(n(C)c3ccccc23)C1=O | inconclusive: 15.8 µM [inhibitor, partial curve, poor fit]
6 | CC(=O)c1ccc(Oc2nc(C)nc3c2oc2ccccc23)cc1 | inconclusive: 2.51 µM [inhibitor, full curve]
7 | Oc1ccc(Cl)c(Cl)c1 | inactive
8 | CCOC(=O)c1c(NS(=O)(=O)c2ccccc2)n(CCCOC)c2nc3ccccc3nc12 | inconclusive: 35.5 µM [inhibitor, single point]
9 | O=C1NCN(c2ccccc2)C12CCN(C(CCc1ccccc1)c1nnnn1C1CCCC1)CC2 (configuration not stated) | active: 11.2 µM
10 | COc1ccc(CCNc2nccn(-c3ccc(C)c(C)c3)c2=O)cc1OC | inconclusive: 22.4 µM [inhibitor, single point]
11 | COC(=O)C1=C(c2ccc3ccccc3c2)C[C@@H]2CC[C@H]1N2C(=O)N1CCCCC1 | inconclusive: 0.112 µM [inhibitor, full curve, poor fit]
12 | CCOCN(C(=O)CCl)c1c(C)cccc1CC | inactive
13 | Cc1ccc(CN(C)C(=O)c2cccc(S(=O)(=O)N3CCN(c4ccccc4)CC3)c2)cc1 | inconclusive: 10 µM [inhibitor, partial curve, poor fit]
14 | O=C(Nc1cccc2ccccc12)N1CCC2(CC1)OCCO2 | inconclusive: 25.1 µM [inhibitor, single point]
15 | COC(=O)C1=C(c2ccc(Cl)c(C(F)(F)F)c2)C[C@@H]2CC[C@H]1N2C(=O)NCC1CC1 | inconclusive: 35.5 µM [inhibitor, single point]
16 | Fc1ccc(C(OCCN2CCN(CCCc3ccccc3)CC2)c2ccc(F)cc2)cc1 | inconclusive: 25.1 µM [inhibitor, single point]
17 | Cc1oc(-c2cccc(Cl)c2)nc1CN1CCC(C(=O)NCCCN2CCN(c3ccc(F)cc3)CC2)CC1 | inconclusive: 3.16 µM [inhibitor, single point]
18 | COC(=O)C[C@]1(C(=O)OC)CN(C#N)N(c2ccc(Cl)cc2)C12c1ccccc1-c1ccccc12 | active: 3.98 µM
19 | Cc1ccc(OCC(=O)N2CCN(Cc3ccc4c(c3)OCO4)CC2)cc1 | inconclusive: 22.4 µM [inhibitor, single point]
20 | CCCOP(=O)(OCCC)C(NC(=O)c1cc(OC)c(OC)c(OC)c1)c1ccccc1 (configuration not stated) | inactive
21 | CN(Cc1ccc(OC(F)F)cc1)Cc1nc2c(Br)cc(Br)cc2c(=O)[nH]1 | inconclusive: 25.1 µM [inhibitor, single point]
22 | Cc1ccc(Cn2cccc(C(=O)Nc3cc(C)on3)c2=O)cc1 | inactive
23 | COc1ccc(S(=O)(=O)NCCc2sc3nc(-c4ccc(C)cc4)nn3c2C)cc1F | inconclusive: 2.82 µM [inhibitor, partial curve, poor fit]

Row | Compound | Potency
24 | COc1ccc2c(c1OC)CN1CCc3cc4c(cc3[C@H]1C2)OCO4 | inconclusive: 4.47 µM [inhibitor, partial curve]
25 | Nc1nc(F)nc2c1ncn2[C@@H]1O[C@H](CO)[C@@H](O)[C@@H]1O | active: 0.501 µM
26 | COC(=O)C1=C(c2ccccc2OCc2ccccc2)C[C@@H]2CC[C@H]1N2C(=O)NC1CCN(Cc2ccccc2)CC1 | inconclusive: 17.8 µM [inhibitor, partial curve, poor fit]
27 | COC(=O)C1=C(c2cccc(C#N)c2)C[C@@H]2CC[C@H]1N2C(=O)NC(C)C | inconclusive: 0.224 µM [inhibitor, full curve, poor fit]
28 | CCCC1=Nc2cc(C(=O)NCCCN(CC)CC)ccc2Sc2ccccc21 | inconclusive: 35.5 µM [inhibitor, single point]
29 | COc1ccc(C(Nc2ccccc2)P(=O)(Oc2ccccc2)Oc2ccccc2)cc1 (configuration not stated) | inconclusive: 5.62 µM [inhibitor, single point]
30 | CCOc1ccc(NS(=O)(=O)c2ccc(Cl)c(N=Nc3c(O)[nH]c(=S)[nH]c3=O)c2)cc1Br | inconclusive: 22.4 µM [inhibitor, single point]
31 | COc1ccc(Cn2c(N)c(C(=O)NCc3ccco3)c3nc4ccccc4nc32)cc1OC | active: 15.8 µM
32 | CN(C)C(=O)Oc1ccc(Br)cc1C(=O)Nc1ccc(F)c(Cl)c1 | inconclusive: 12.6 µM [inhibitor, single point]
33 | O=C1NC(=O)N(Cc2ccc(F)cc2)C(=O)/C1=C\c1ccc([N+](=O)[O-])s1 | inconclusive: 35.5 µM [inhibitor, single point]
34 | CCn1c(=N)n(Cc2ccccc2F)c2ccccc21 | inactive
35 | O=C(c1ccc(-c2ccccc2)c(F)c1)C1CCCN(CCO)C1 (configuration not stated) | inconclusive: 35.5 µM [inhibitor, single point]
36 | COc1ccc(-n2nnnc2C(CCc2ccccc2)N2CCC3(CC2)C(=O)NCN3c2ccccc2)cc1 (configuration not stated) | inconclusive: 11.2 µM [inhibitor, partial curve, poor fit]
37 | O=C1CN=C(c2ccccc2)c2ccccc2N1Cc1ccc(C(F)(F)F)cc1 | inconclusive: 17.8 µM [inhibitor, partial curve]
38 | COc1ccc(S(=O)(=O)N(CC(=O)NCc2ccccc2OC)c2ccc(C)cc2)cc1 | inconclusive: 20 µM [inhibitor, single point]
39 | COC(=O)C1=C(c2cccc(OC)c2OC)C[C@@H]2CC[C@H]1N2C(=O)N1CCCCC1 | inconclusive: 10 µM [inhibitor, single point]
40 | CCOC(=O)C1(c2ccccc2)CCN(CCC(=O)Nc2ccc(C(=O)OC)cc2)CC1 | inconclusive: 35.5 µM [inhibitor, single point]
41 | O=S(=O)(c1ccc(Cl)cc1)N1CN2CCN(C2)C1 | inactive
42 | O=C(Cc1ccccc1)N1CCN(Cc2cccnc2)CC1 | inactive
43 | C1=NCCc2c1[nH]c1ccccc21 | inconclusive: 35.5 µM [inhibitor, single point]
44 | Cc1ccc(Cn2cccc(C(=O)Nc3ccc4c(c3)OCCO4)c2=O)cc1 | inconclusive: 2 µM [inhibitor, full curve, poor fit]
45 | Cc1nc(Cl)sc1C(=O)Nc1ccc2ccccc2c1 | inactive
46 | O=C(N/N=C/c1c(O)n(CCC2=CCCCC2)c(=S)[nH]c1=O)c1ccccc1 | inconclusive: 35.5 µM [inhibitor, single point]

Row | Compound | Potency
47 | CCCc1nc2ccc(Br)cc2c(=O)n1-c1ccc([N+](=O)[O-])c(C(F)(F)F)c1 | active: 7.08 µM
48 | COc1cccc(NC(=O)c2cccn(Cc3ccccc3C)c2=O)c1 | inconclusive: 17.8 µM [inhibitor, single point]
49 | CCOc1ccc(S(=O)(=O)N(CC(=O)NCCc2ccc(OC)c(OC)c2)c2ccccc2)cc1 | inconclusive: 3.55 µM [inhibitor, partial curve, poor fit]
50 | O=C(NCCSc1c(-c2ccccc2)[nH]c2ccccc12)c1ccc(S(=O)(=O)N2CCOCC2)cc1 | inconclusive: 1.26 µM [inhibitor, full curve, poor fit]
51 | Clc1cccc(N2CCNCC2)c1Cl | inactive
52 | c1ccc(-c2nn(-c3ccccc3)[n+](-c3ccccc3)n2)cc1 | active: 10 µM
53 | CC1OC(OC2C(O)CC(OC3C(O)CC(OC4CCC5(C)C(CCC6C5CCC5(C)C(C7=CC(=O)OC7)C(O)CC65O)C4)OC3C)OC2C)CC(O)C1O (configuration not stated) | inconclusive: 0.316 µM [inhibitor, full curve]
54 | COc1ccccc1C1SCC(=O)Nc2c1c(C)nn2-c1cccc(C)c1 (configuration not stated) | inactive
55 | COc1ccc(-c2ccc3n2Cc2cnnn2-c2ccccc2-3)cc1 | inactive
56 | C[C@]12CCC(=O)C=C1CCC1C2CC[C@@]2(C)C1CC[C@@H]2O (some centres not stated) | inactive
57 | O=c1[nH]c(=O)n(CCC2=CCCCC2)c(O)c1/C=N/Nc1cccc2ccccc12 | inactive
58 | CCN1/C(=C\C=C\C2=[N+](CC)c3ccccc3C2(C)C)C(C)(C)c2ccccc21 | inconclusive: 0.501 µM [inhibitor, full curve, poor fit]
59 | Oc1c(Cl)cccc1Cc1cc(Cl)cc(Cl)c1O | active: 11.2 µM
60 | O=C(O)c1cccs1 | inactive
61 | CCc1ccc(C2=NN(CCC(=O)N3CCC4(CC3)OCCO4)C(=O)CC2)cc1 | inactive
62 | COc1cccc(-c2nn(CCC#N)cc2C(=O)Nc2ccccc2Cl)c1 | inactive
63 | CC(=O)c1cccc(NC(=O)CSc2ncc3c(n2)-c2cc(Cl)ccc2N(Cc2ccccc2)S3(=O)=O)c1 | inconclusive: 2.51 µM [inhibitor, partial curve, poor fit]
64 | O=C(CCN1CC=C(c2ccccc2)CC1)NCc1ccccc1 | inactive
65 | CN1CCN(CCC(C#N)(c2ccccc2)c2ccccc2)CC1 | inactive
66 | COc1ccc(-n2c(SC)nc3ccccc3c2=O)cc1 | inconclusive: 35.5 µM [inhibitor, single point]
67 | Oc1ccc(/C=N/NP(=S)(c2ccccc2)c2ccccc2)cc1O | inconclusive: 14.1 µM [inhibitor, single point]
